According to the RNAGym collection of RNA variant scans (doi:10.1073/pnas.2313332121):
This sample is rich in variants without activity.

B1: TPR 5TU (parent)
chain: GGAUCUUCUCGAUCUAACAAAAAAGACAAAUCUGCCACAAAGCUUGAGAGCAUCUUCGGAUGCAGAGGCGGCAGCCUUCGGUGGCGCGAUAGCGCCAACGUUCUCAACUAUGACACGCAAAACGCGUGCUCCGUUGAAUGGAGUUUAUCAUG

Variants of: B1
Assay: polymerase ribozyme fitness, log enrichment relative to wild type (log ratio); higher = more active; in vitro selection for triplet polymerase activity
Procedure, shortened: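 Each subunit of a heterodimeric triplet polymerase ribozyme was represented by a PCR-built, transcribed mutant library that underwent triplicate single-round in vitro selection with frozen incubation at −7 °C. Extended constructs were recovered by gel excision, streptavidin-bead capture and RT-PCR, and Illumina sequencing of input and output libraries kept genotypes with ≥10 input reads and ≥1 read per output. Fitness is the logarithm of genotype enrichment relative to wild-type enrichment, from inverse-variance-weighted replicate averages, with a logarithm base of 2.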

Polymerase ribozyme fitness (log ratio), -0.63:
A41U G83A A150U

Polymerase ribozyme fitness (log ratio), -4.15:
C43U G86U

Polymerase ribozyme fitness (log ratio), -1.19:
A41G C54G G117U G124C

Polymerase ribozyme fitness (log ratio), -1.12:
A41U C57U G80A

Polymerase ribozyme fitness (log ratio), ≤ -4.2:
C43A C57A C85A G92A G143U
C43U U56A G94A
C43U U55A G67C U77A C85A A115C
U44A C75A U101G
C43U C76U C95U G128C U135C
G42U U90G C95U C114U U139A
U44A C95U C99G
G42C C108U
C43G C54A G58A U77A A91U C131A A142C
G42U U45C C72U C85G A98G A106C G117U
C43G A49G G68A C105G U151G
U44A G59A G88C U144G
A41U G42C U44A A60U C69U A91C C96U U134G
G42C C85G G92A G94A U101A A115U A142C U148G
G42C U61A U90G C132A
U44A C87U G126A U130G
G42A G58U A64G G68U G92C C95U C129U U134C
U44A G50A G74U G88U C95G
G42U U45G U61G C87G C105G G141C
A41U U55A U56G G83A A121G U148C
G42C C75A A91U
A41G A73U U78A C85A G117C
U44G C75U A89G
A41U C54U G88U U148A
A41C U44G A66C A107G
G42A G136A A150U
U44A C93G C95G C99G A106G C108G U148G
G42C A47G C57A C75G C125G
A41G U44A U61C C75U A142C
A41G G42U A66U G74A U151G
U44C C57A C76U C95U C105U U148G
G42C C51A U61A G80C A91G
C43G U55A G68U G88U C116U
C43G C54U A66G C93G
G42A C54U G117A
A41G C76G A91U G126A G136A
A41U G50U A64U C118G A150C
G42A C93U
U44A G71C A73G G94U A119U G126U A142G
A41G G42A G50C C63G A66C G88U C96U G133U U146C U151C
G42U A91U C103G C116G
U44A C96A A106G C125A U127G G136U
C43U U55A C85U A91U A97C
C43U G81C G88A G133C
U44A U53G C105U C116G G141C
G42A C85A C125A
C43U G59C U78G C96U U101G G140U
A41U C87U A137U G143U
G42A G92A C96U A98G U151G
A41G C63G G68U C85U A137U
C43U G59C G80C
C43G C57U A60G A64G G83A
G42C G46U G48C G84A
G42C G70U C85A
G42A G48U A52U C75A U90C
C43U U45A A73G G88A C103G
C43G G59C C69G C87G U90C A119U G128C
C43A C54G G59C C63U C96U G124U C125G
U44A G67C C76A G94U U148A
G42A G58A C93U A121C U130A G133C A142C A147G A150U
G42A A47G C54G G94C C103A
A41G C54G G81A C96G C118U
G42A C54A G86A G141A
A41U G59U A60C C72U C87A G124C
C43G A47C U55A G58C G143C
C43G G48C G50C U101C C149A
C43G G50U U61C G86A C95U C125U U146G
G42U G70U C96A U127C
C43A A47U C76U C85U C132A
U44A G58A C85U A120C
G42U C57U U82A
C43A G67U C76U U82C
U44A G80A A121U U144A
G42U G83A
G42C U44A A49U A60C C79U C96U C125A A142G
C43U G48A C57G C85U
U44A A49C G68U G71U G86C C118U C125G
G42A A97G

Polymerase ribozyme fitness (log ratio), -1.73:
A41G G143U

Polymerase ribozyme fitness (log ratio), -1.21:
A41G U104G C125G
